# Measured values as given in publication PMC12820563.
# Some of the results follow. The list includes weakly bound sequences.
# Biological target: T1, MBP-FoxP3dN (UniProt Q99JB6)
# T1 sequence: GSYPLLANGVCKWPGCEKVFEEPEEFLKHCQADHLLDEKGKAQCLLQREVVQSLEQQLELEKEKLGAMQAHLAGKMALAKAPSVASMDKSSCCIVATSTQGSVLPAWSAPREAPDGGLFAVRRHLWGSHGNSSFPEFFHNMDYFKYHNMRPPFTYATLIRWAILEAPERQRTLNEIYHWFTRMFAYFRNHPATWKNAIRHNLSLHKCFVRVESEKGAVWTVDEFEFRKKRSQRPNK
# Assay: PD-seq (MBP pull-down with sequencing)
# Conditions: 20 mM Tris-HCl pH 7.5, 100 mM NaCl, 1.5 mM MgCl2, 0.4 uM protein, 0.1 uM dsDNA library, 30 min, room temperature, amylose pull-down; high values mean tight binding; double strand, one strand shown
row,Sequence,binding signal (RPM ratio (pull-down/input))
1,GATGATTGTTCTCCCAGCTGATGAATTCCCATGATCGAGTAAACAAATTTTCCTAATCTTTCTGTTCAAGCGCCATCTAC,0.248
2,GATGATTGTTCTCCCAGCTGATGAATTCGTCACCTCGAGTAAACAAATTTTCCTAATCTTTCTGTTCAAGCGCCATCTAC,2
3,GATGATTGTTCTCCCAGCTGATGAATTTAAAGCATCGAGTAAACAAATTTTCCTAATCTTTCTGTTCAAGCGCCATCTAC,0.776
4,GATGATTGTTCTCCCAGCTGATGAATTTGTATCGTCGAGTAAACAAATTTTCCTAATCTTTCTGTTCAAGCGCCATCTAC,5.21
5,GATGATTGTTCTCCCAGCTGATGAATTGACGCAATCGAGTAAACAAATTTTCCTAATCTTTCTGTTCAAGCGCCATCTAC,2.66
6,GATGATTGTTCTCCCAGCTGATGAATTTTTGCAGTCGAGTAAACAAATTTTCCTAATCTTTCTGTTCAAGCGCCATCTAC,0.916
7,GATGATTGTTCTCCCAGCTGATGAATTCGACCCCTCGAGTAAACAAATTTTCCTAATCTTTCTGTTCAAGCGCCATCTAC,0.366
8,GATGATTGTTCTCCCAGCTGATGAATTCCCGTGCTCGAGTAAACAAATTTTCCTAATCTTTCTGTTCAAGCGCCATCTAC,0.296
9,GATGATTGTTCTCCCAGCTGATGAATTATTAGTTTCGAGTAAACAAATTTTCCTAATCTTTCTGTTCAAGCGCCATCTAC,1.38
10,GATGATTGTTCTCCCAGCTGATGAATTTGTCGCATCGAGTAAACAAATTTTCCTAATCTTTCTGTTCAAGCGCCATCTAC,3.43
11,GATGATTGTTCTCCCAGCTGATGAATTCAGTCTCTCGAGTAAACAAATTTTCCTAATCTTTCTGTTCAAGCGCCATCTAC,0.583
12,GATGATTGTTCTCCCAGCTGATGAATTGCGGGATTCGAGTAAACAAATTTTCCTAATCTTTCTGTTCAAGCGCCATCTAC,0.79
13,GATGATTGTTCTCCCAGCTGATGAATTCCTGGCGTCGAGTAAACAAATTTTCCTAATCTTTCTGTTCAAGCGCCATCTAC,0.336
14,GATGATTGTTCTCCCAGCTGATGAATTTGATTTCTCGAGTAAACAAATTTTCCTAATCTTTCTGTTCAAGCGCCATCTAC,4.02
15,GATGATTGTTCTCCCAGCTGATGAATTGGGGGTGTCGAGTAAACAAATTTTCCTAATCTTTCTGTTCAAGCGCCATCTAC,0.996
16,GATGATTGTTCTCCCAGCTGATGAATTCAACTATTCGAGTAAACAAATTTTCCTAATCTTTCTGTTCAAGCGCCATCTAC,0.418

row,Sequence,binding signal (RPM ratio (pull-down/input))
1,GATGATTGTTCTCCCAGCTGATGAATTAGAGCGATCGAGTAAACAAATTTTCCTAATCTTTCTGTTCAAGCGCCATCTAC,0.488
2,GATGATTGTTCTCCCAGCTGATGAATTCTAGTTGTCGAGTAAACAAATTTTCCTAATCTTTCTGTTCAAGCGCCATCTAC,1.26
3,GATGATTGTTCTCCCAGCTGATGAATTTGAGGTTTCGAGTAAACAAATTTTCCTAATCTTTCTGTTCAAGCGCCATCTAC,0.841
4,GATGATTGTTCTCCCAGCTGATGAATTCGAATGATCGAGTAAACAAATTTTCCTAATCTTTCTGTTCAAGCGCCATCTAC,0.366
5,GATGATTGTTCTCCCAGCTGATGAATTAAGTTAGTCGAGTAAACAAATTTTCCTAATCTTTCTGTTCAAGCGCCATCTAC,1.87
6,GATGATTGTTCTCCCAGCTGATGAATTCAGCATTTCGAGTAAACAAATTTTCCTAATCTTTCTGTTCAAGCGCCATCTAC,5.86
7,GATGATTGTTCTCCCAGCTGATGAATTCGAGCCATCGAGTAAACAAATTTTCCTAATCTTTCTGTTCAAGCGCCATCTAC,1.13
8,GATGATTGTTCTCCCAGCTGATGAATTCTAACCGTCGAGTAAACAAATTTTCCTAATCTTTCTGTTCAAGCGCCATCTAC,0.314
9,GATGATTGTTCTCCCAGCTGATGAATTTCATTCCTCGAGTAAACAAATTTTCCTAATCTTTCTGTTCAAGCGCCATCTAC,0.482
10,GATGATTGTTCTCCCAGCTGATGAATTCTCTAAGTCGAGTAAACAAATTTTCCTAATCTTTCTGTTCAAGCGCCATCTAC,0.192
11,GATGATTGTTCTCCCAGCTGATGAATTCTTCTCGTCGAGTAAACAAATTTTCCTAATCTTTCTGTTCAAGCGCCATCTAC,0.246
12,GATGATTGTTCTCCCAGCTGATGAATTTTCAGGGTCGAGTAAACAAATTTTCCTAATCTTTCTGTTCAAGCGCCATCTAC,0.188
13,GATGATTGTTCTCCCAGCTGATGAATTGTGACTTTCGAGTAAACAAATTTTCCTAATCTTTCTGTTCAAGCGCCATCTAC,2.08
14,GATGATTGTTCTCCCAGCTGATGAATTAGGCTCATCGAGTAAACAAATTTTCCTAATCTTTCTGTTCAAGCGCCATCTAC,0.683
15,GATGATTGTTCTCCCAGCTGATGAATTGCCACGATCGAGTAAACAAATTTTCCTAATCTTTCTGTTCAAGCGCCATCTAC,0.658
